Laboratory results taken from PubChem BioAssay AID624417 (National Center for Advancing Translational Sciences (NCATS), 2012).
The whole screen tested about 410,000 compounds, of which about 6,400 (1.6%) were called active. This list was built around the results that the source calls inconclusive (neither active nor inactive); the mix of calls is not that of the screen. The call rests on the fitted dose curve; in most records, active means well fitted inhibition curve with a large enough effect; inconclusive means small, poorly fitted or top-dose-only effect; inactive means no such curve, though single readings can be large or run the other way. Potencies of inconclusive entries are left out as doubtful fits.

Target: Glucagon-like peptide 1 receptor (Homo sapiens) (UniProt P43220)
Chain of UniProt P43220 (P43220 whole entry, looked up): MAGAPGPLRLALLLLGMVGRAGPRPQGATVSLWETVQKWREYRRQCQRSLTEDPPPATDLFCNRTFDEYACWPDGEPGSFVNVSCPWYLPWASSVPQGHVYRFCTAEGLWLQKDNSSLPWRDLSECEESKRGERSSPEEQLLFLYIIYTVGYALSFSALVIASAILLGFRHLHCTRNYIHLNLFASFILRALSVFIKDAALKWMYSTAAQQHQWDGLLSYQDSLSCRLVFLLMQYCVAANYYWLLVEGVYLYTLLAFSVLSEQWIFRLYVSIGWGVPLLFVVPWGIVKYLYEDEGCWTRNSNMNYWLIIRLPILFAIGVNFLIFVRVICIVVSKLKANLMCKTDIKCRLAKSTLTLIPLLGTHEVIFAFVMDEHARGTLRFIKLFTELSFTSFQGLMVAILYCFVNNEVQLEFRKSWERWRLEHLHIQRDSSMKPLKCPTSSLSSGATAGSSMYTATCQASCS
Assay: qHTS of GLP-1 Receptor Inverse Agonists (Inhibition Mode); further: nearly all actives have a fitted effect of over 55% in size
Conditions: HEK293 GLP-1R CRE-luciferase, luminescence, 24 h, GLP-1R form is constitutively active; activity change, negative = inhibition: at 38.3 µM (top of the series) unless noted
Procedure, shortened: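 Assay principle: reduced luminescence from a cAMP-responsive reporter in HEK293 cells co-expressing a constitutively active GLP-1R. Conditions: 24 hr compound incubation, 37 deg C, 5% CO2.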
On the % scale 0 is the no-effect control and ±100 the full control effect; potency means the concentration at half of the fitted maximal effect; tags describe the fitted curve by direction and shape.

| Structure (SMILES) | Potency | activity change, negative = inhibition |
| --- | --- | --- |
| O=C(CSc1nccn1-c1ccc(F)cc1)Nc1nc2ccccc2s1 | inconclusive [inhibitor, single point] | – |
| Cc1cccc(Cn2c(-c3ccccc3)nc3ccccc32)c1 | inconclusive [inhibitor, partial curve, poor fit] | – |
| COc1ccc(C(=O)C(CCC(CNC(C)(C)C)C(=O)c2ccc(OC)cc2)CNC(C)(C)C)cc1 (centres undefined) | inconclusive [inhibitor, full curve, poor fit] | – |
| N#Cc1ccc(C(C(=O)NC2CCCCC2)n2c(=O)c(-c3cc4ccccc4[nH]3)nc3ccccc32)cc1 (centres undefined) | inconclusive [inhibitor, partial curve, poor fit] | – |
| CCCCC(CC)C(=O)Oc1ccc(O)c(C(C)(C)C)c1 (centres undefined) | active: 5.62 µM | – |
| O=C(CC1N=C2c3ccccc3N=C(SCc3ccc(F)cc3)N2C1=O)NCCc1ccccc1 (centres undefined) | inconclusive [inhibitor, single point] | – |
| O=C(c1cc2cc(F)ccc2[nH]1)N1CCN(Cc2ccc3c(c2)OCO3)CC1 | – | inactive: -62.9% |
| CCN(CC)c1ccc(/C=N/NC(=O)C2CC2)cc1 | – | inactive: -6.28% |
| CCN(CC)CCCn1c2c(c(SCC(=O)Nc3ccc(C)c(F)c3)nc1=O)CCC2 | active: 10 µM | – |
| COCc1nc2ccccc2n1Cc1ccc(C(C)(C)C)cc1 | inconclusive [inhibitor, single point] | – |
| CC(=O)Nc1ccc(NC(=O)c2ccc3c(c2)N(Cc2cccc(Cl)c2)C(=O)c2ccccc2S3=O)cc1 (centres undefined) | inconclusive [inhibitor, partial curve] | – |
| O=c1cc(-c2ccccc2)[nH]c2cc(F)ccc12 | inconclusive [inhibitor, full curve, poor fit] | – |
| COc1ccccc1NC(=O)Cn1c(C)cc(C)c(C#N)c1=O | – | inactive: 2.61% |
| CC(C)(C)c1ccc(S(=O)(=O)/N=C2\C=C(NS(=O)(=O)c3ccccc3)C(=O)c3ccccc32)cc1 | inconclusive [inhibitor, single point] | – |
| CC(=O)N1CCC(N(Cc2ccc(C)o2)C(=O)Nc2cccc(C(F)(F)F)c2)CC1 | – | inactive: 5.52% |
| Cc1oc(-c2ccccc2Cl)nc1CS(=O)CC(=O)NCCCN1CC(C)CC(C)C1 (centres undefined) | inconclusive [inhibitor, single point] | – |
| Cc1ccc(Sc2ccc(NC(=O)CCl)cc2)c(C)c1 | inconclusive [inhibitor, single point] | – |
| Cc1ccccc1N(CC(=O)N/N=C/c1ccc(F)cc1)C(=O)c1ccccc1 | inconclusive [inhibitor, single point] | – |
| CCOC(=O)c1c(-c2ccc(C)cc2)csc1/N=C(\C)C1=C(O)c2ccccc2C1=O | inconclusive [inhibitor, partial curve, poor fit] | – |
| COc1ccc(C(=O)COC(=O)c2cc(=O)[nH]c3ccccc23)c(OC)c1 | – | inactive: 18.1% |
| CC(=O)Nc1cccc(-c2ccnc3c2CC(C)(C(=O)Nc2cccc(Oc4ccccc4)c2)O3)c1 (centres undefined) | inconclusive [inhibitor, single point] | – |
| Cc1cc(N/N=C2/CCCc3ccccc32)nc2ccccc12 | inconclusive [inhibitor, single point] | – |

| Structure (SMILES) | Potency | activity change, negative = inhibition |
| --- | --- | --- |
| CCCN(CCC)C(=O)c1ccc2c(=O)n(Cc3ccco3)c(=S)[nH]c2c1 | inconclusive [inhibitor, single point] | – |
| Cc1ccc(-c2nn(C(C)(C)C)c3ncnc(NS(=O)(=O)c4ccc([N+](=O)[O-])cc4)c23)cc1 | inconclusive [inhibitor, partial curve, poor fit] | – |
| COC(=O)c1ccc(C2NC(=S)N(c3ccccc3)C(C)=C2C(=O)Nc2ccccc2OC)cc1 (centres undefined) | – | inactive: 1.83% |
| CCc1ccc(S(=O)(=O)Nc2cccc(-c3ccc(N4CCCCC4)nn3)c2)s1 | inconclusive [inhibitor, single point] | – |
| CC(OC(=O)C1CCCC1)C(=O)Nc1ccc(S(N)(=O)=O)cc1 (centres undefined) | – | inactive: 7.39% |
| COc1ccccc1NCC(=O)N/N=C/c1c(O)ccc2ccccc12 | inconclusive [inhibitor, full curve, poor fit] | – |
| C=CCCCCCCCCc1nc(SCC(C)=O)n[nH]1 | inconclusive [inhibitor, single point] | – |
| O=C(NCC1CCN(Cc2ccccc2Cl)CC1)Nc1ccccc1F | inconclusive [inhibitor, single point] | – |
| O=C(/C=C/c1ccco1)N1CCc2ccccc21 | inconclusive [inhibitor, partial curve, poor fit] | – |
| CCC(=O)N1N=C(c2ccc(Cl)cc2)CC1c1ccco1 (centres undefined) | inconclusive [inhibitor, single point] | – |
| O=C(Nc1ccc2c(c1)OCCO2)C1c2ccccc2OCC(=O)N1Cc1ccco1 (centres undefined) | – | inactive: 1.49% |
| Cc1cc(N/N=C/c2ccc(O)cc2)c2cccc(C)c2n1 | inconclusive [inhibitor, single point] | – |
| CN1CCN(c2ccccc2NC(=O)c2ccc(Br)o2)CC1 | – | inactive: 77.8% |
| CC(=O)CSc1cc(-c2ccccc2)nc2ncnn12 | inconclusive [inhibitor, single point] | – |
| COc1ccc(C(=O)NCC(c2cccs2)N2CCc3ccccc32)c(OC)c1 (centres undefined) | inconclusive [inhibitor, partial curve, poor fit] | – |
| N#C/C(=C\c1ccc(O)c(O)c1)C(=O)NCCCc1ccccc1 | inconclusive [inhibitor, single point] | – |
| O=S(=O)(c1ccccc1)N1CCC(O)(CSc2ccc(Cl)cc2)CC1 | inconclusive [inhibitor, partial curve, poor fit] | – |
| CCN(CC)C(=O)C1=C(C)N(CCC2=CCCCC2)C(=O)C(CC(=O)NCc2cccc3ccccc23)C1 (centres undefined) | inconclusive [inhibitor, single point] | – |
| CCCC[n+]1c(-c2ccc(Cl)cc2Cl)csc1Nc1ccccc1 | inconclusive [inhibitor, single point] | – |
| Cc1cc(F)ccc1S(=O)(=O)N1CCCOC1CNC(=O)C(=O)NCCc1c[nH]c2ccccc12 (centres undefined) | inconclusive [inhibitor, full curve, poor fit] | – |
| Cc1ccc(NC(=O)c2cc3ccccc3o2)cc1Cl | active: 12.6 µM | – |
| Cc1cc(/C=C2\C(=O)NN(c3ccccc3)C2=O)c(C)n1-c1ccccc1O | inconclusive [inhibitor, partial curve, poor fit] | – |

| Structure (SMILES) | Potency | activity change, negative = inhibition |
| --- | --- | --- |
| CCOC(=O)CC(NC(=O)Cc1ccc(F)cc1)c1ccccc1Cl (centres undefined) | inconclusive [inhibitor, partial curve, poor fit] | – |
| CCN(C(=O)COC(=O)/C=C/c1ccc(F)cc1)C1CCCCC1 | inconclusive [inhibitor, partial curve, poor fit] | – |
| CCN1C(=O)CCN(C2CCCC2)c2nc(Nc3ccc(C(=O)NC4CCN(C)CC4)cc3OC)ncc21 | inconclusive [inhibitor, partial curve, poor fit] | – |
| Cn1cc(-c2cc3n(n2)CCC(=O)N3CCCC(=O)NCc2ccc(F)cc2)c2ccccc21 | inconclusive [inhibitor, partial curve, poor fit] | – |
| CC(=O)c1sc(NC(=O)C2CCN(C(=O)c3ccc(F)cc3)CC2)nc1-c1ccccc1 | inconclusive [inhibitor, partial curve, poor fit] | – |
| Cc1cccc(C)c1NC(=O)c1nc(S(C)(=O)=O)ncc1N(Cc1ccc(C(C)(C)C)cc1)Cc1ccco1 | inconclusive [inhibitor, partial curve, poor fit] | – |
| O=C(Nc1nc(-c2ccccc2)cs1)C1CCCCN1S(=O)(=O)c1ccc(Cl)cc1 (centres undefined) | inconclusive [inhibitor, single point] | – |
| CCOC(=O)c1ccccc1Nc1nc2ccc(C)cc2n2nnnc12 | – | inactive: 3.75% |
| O=C(CCSc1nnc(-c2ccncc2)o1)Nc1ccccc1 | – | inactive: 0.991% |
| CCCN1CCN(C(=O)C2CCN(S(=O)(=O)c3c(C)noc3/C=C/c3ccc(C)cc3)CC2)CC1 | active: 3.16 µM | – |
| COc1ccc(N2CCN(C(CNC(=O)CC(C)(C)C)c3ccc4c(c3)OCO4)CC2)cc1 (centres undefined) | inconclusive [inhibitor, single point] | – |
| COCCNc1ccc([N+](=O)[O-])cc1C(=O)NC1CCCc2ccccc21 (centres undefined) | inconclusive [inhibitor, single point] | – |
| CCn1c2ccccc2c2cc(NC(=O)CSc3nnc(-c4ccccc4)o3)ccc21 | inconclusive [inhibitor, full curve, poor fit] | – |
| CC(OC(=O)c1ccc(NC(=O)CC#N)cc1)C(=O)Nc1ccc(S(=O)(=O)N2CCCC2)cc1 (centres undefined) | – | inactive: 15.1% |
| CCn1c(=O)c(C(=O)NCc2ccccn2)c(O)c2ccccc21 | inconclusive [inhibitor, partial curve, poor fit] | – |
| CCOC(=O)c1ccccc1NC(=O)Cn1nnc2sc3c(c2c1=O)CCCC3 | – | inactive: 11.9% |
| CCN(CC)CCOC(=O)c1ccc(NC(=O)CCNC(=O)Cn2ccc3ccccc3c2=O)cc1 | – | inactive: -19.6% |
| N#CCc1ccc(OCCCN2CCC(C(O)(c3ccccc3)c3ccccc3)CC2)cc1 | inconclusive [inhibitor, single point] | – |
| COc1ccc(C(=O)NC(=S)NCc2cccnc2)cc1OC | – | inactive: 13.7% |
| COc1cccc(CNC(=O)Cn2ccc3cc(S(=O)(=O)N4CCCCCC4)ccc32)c1OC | inconclusive [inhibitor, partial curve] | – |
